In the supplement of paper PMC12217912:
The list shows a part of the results. The full chains were built here from the parent and the listed change. Values near 0.05 are background.

B1: TEV protease; numbered along this chain (parent)
chain: MGESLFKGPRDYNPISSSICHLTNESDGHTTSLYGIGFGPFIITNKHLFRRNNGTLVVQSLHGVFKVKDTTTLQQHLVDGRDMIIIRMPKDFPPFPQKLKFREPQREERICLVTTNFQTKSMSSMVSDTSCTFPSGDGIFWKHWIQTKDGQCGSPLVSTRDGFIVGIHSASNFTNTNNYFTSVPKNFMELLTNQEAQQWVSGWRLNADSVLWGGHKVFMVKPEEPFQPVKEATQL

Variants of: B1
Experiment: raw area under fraction-flipped curve 0-4 h after induction (AUC4h, not background-subtracted), DNA-recorder readout of cleavage of the substrate (dimensionless); higher = more cleavage of the substrate by the protease variant
Settings: temperature: 34 °C; time window: 0-4 h after rhamnose induction
Protocol: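 In vivo DNA recorder in E. coli TOP10(DE3) ΔrhaA at 34 °C. Each TEVp single-site mutant (parent TEVp 0) is paired with a single-site variant of the 7-mer TEVs (canonical ENLYFQ|S). The substrate sits between flexible linkers in a Bxb1-sfGFP-TEVs-SsrA fusion, so cleavage stabilises Bxb1 and speeds flipping of a recombination array, read by NGS. The value is the raw area under the fraction-flipped curve over 0-4 h after rhamnose induction (AUC4h), with ≥20 reads per time point. It is not background-subtracted; inactive controls average about 0.047.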
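Note: Bxb1 expression induced with 0.2% (w/v) L-rhamnose at OD600 near 0.5, cultures sampled hourly, flipped fraction per protease–substrate barcode pair counted by paired-end Illumina sequencing.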

Row | Variant | area with substrate ENLYAQS | area with substrate ENLYCQS | area with substrate ENLYDQS | area with substrate ENLYEQS | area with substrate ENLYGQS | area with substrate ENLYIQS | area with substrate ENLYKQS | area with substrate ENLYLQS | area with substrate ENLYNQS | area with substrate ENLYQQS | area with substrate ENLYRQS | area with substrate ENLYSQS | area with substrate ENLYTQS | area with substrate ENLYYQS | area with substrate ENLYHQS | area with substrate ENLYMQS | area with substrate ENLYPQS | area with substrate ENLYVQS | area with substrate ENLYWQS
1 | MGESLFKGPRDYNPISSSICHLTNESDGHTTSLYGIGFGPFIITNKHLFRRNNGTLVVQSLHGVFKVKDTTTEQQHLVDGRDMIIIRMPKDFPPFPQKLKFREPQREERICLVTTNFQTKSMSSMVSDTSCTFPSGDGIFWKHWIQTKDGQCGSPLVSTRDGFIVGIHSASNFTNTNNYFTSVPKNFMELLTNQEAQQWVSGWRLNADSVLWGGHKVFMVKPEEPFQPVKEATQL [L73E] | 0.0633 | 0.0621 | 0.0474 | 0.0562 | 0.0518 | 0.0775 | 0.0604 | 0.0487 | 0.0708 | 0.0589 | 0.0699 | 0.0664 | 0.0535 | 0.0551 | – | – | – | – | –
2 | MGESLFKGPRDYNPISSSICHLTNESDGHTTSRYGIGFGPFIITNKHLFRRNNGTLVVQSLHGVFKVKDTTTLQQHLVDGRDMIIIRMPKDFPPFPQKLKFREPQREERICLVTTNFQTKSMSSMVSDTSCTFPSGDGIFWKHWIQTKDGQCGSPLVSTRDGFIVGIHSASNFTNTNNYFTSVPKNFMELLTNQEAQQWVSGWRLNADSVLWGGHKVFMVKPEEPFQPVKEATQL [L33R] | 0.0439 | 0.0652 | 0.0532 | 0.0689 | – | – | – | 0.0522 | 0.058 | 0.063 | 0.0653 | 0.0589 | – | 0.0548 | 0.0575 | 0.0506 | 0.0575 | 0.053 | 0.0592
3 | MGESLFKGPRDYNPISSSICHLTNESDGHTTSLYGIGFGPFIITNKHLFRRNNGTLVVQSLHGVFKVKDTTTLQQHLVDGRDMIIIRMPKDFPPFPQKLKFREPQREERICLVTTNFQTKSMSSMVSDTSCTFPSGDGIFWKHWIQTKDGQCGSPLVSTRDGFIVGIHSASNFTNTNNYFTSVPKNFSELLTNQEAQQWVSGWRLNADSVLWGGHKVFMVKPEEPFQPVKEATQL [M188S] | 0.0681 | – | 0.0624 | 0.0721 | 0.0678 | – | 0.0647 | – | 0.0853 | 0.0559 | – | 0.0818 | 0.0654 | – | – | – | – | 0.143 | 0.0608
4 | MGESLFKGPRDYNPISSSICHLTNESDGHTTSLYGIGFGPFIITNKHLFRRNNGTLVVQSLHGVFKVKDTTTLQQHLVDGRDMIIIRMPKDFPPFPQKLKFREPQREERICLVTTNFQTKSMSSMVSDTSCTFPSGDGIFWKHWIQTKDGQCGSPLVSTRDGFIVGIHSASNFTNTNNYFTSVPKNFMNLLTNQEAQQWVSGWRLNADSVLWGGHKVFMVKPEEPFQPVKEATQL [E189N] | 0.0841 | – | 0.0656 | 0.0652 | 0.0536 | 0.125 | 0.0377 | 0.0855 | 0.0721 | 0.0587 | 0.0447 | – | – | 0.0688 | 0.0639 | 0.0758 | 0.0747 | 0.112 | 0.0725
5 | MGESLFKGPRDYNPISSSICHLTNESDGHTTSLYGIGFGPFIITNKHLFRRNNGTLVVQSLHGVFKVKDTTTLQQHLVDGRDMIIIRMPKDFPPFPQKLKFREPQREERICLVTTNFQTKSMSSMVSDTSCTFPSGDGIFWKHWIQTKDGQCGSPLVSTRDGFIVGIHSASNFTNTNNYFTSVPKNFMELLTNQEAQQWVSGWRLNADSVLWGGHKVFMVKPEEPFQPVKEATTL [Q234T] | 0.0873 | – | 0.0498 | 0.0668 | 0.101 | – | 0.0651 | 0.0933 | 0.0707 | 0.054 | 0.0641 | 0.0738 | 0.0674 | – | 0.0721 | 0.0907 | 0.0865 | 0.117 | 0.0895
6 | MGESLFKGPRDYNPISSSICHLTNESDGHTTSLYGIGFGPFIITNKHLFRRNNATLVVQSLHGVFKVKDTTTLQQHLVDGRDMIIIRMPKDFPPFPQKLKFREPQREERICLVTTNFQTKSMSSMVSDTSCTFPSGDGIFWKHWIQTKDGQCGSPLVSTRDGFIVGIHSASNFTNTNNYFTSVPKNFMELLTNQEAQQWVSGWRLNADSVLWGGHKVFMVKPEEPFQPVKEATQL [G54A] | 0.0578 | 0.0718 | 0.06 | 0.0609 | 0.0639 | 0.0944 | 0.049 | – | 0.0544 | 0.0677 | 0.0601 | – | 0.0509 | – | 0.0533 | 0.0548 | 0.0618 | 0.0725 | 0.0653
7 | MGEILFKGPRDYNPISSSICHLTNESDGHTTSLYGIGFGPFIITNKHLFRRNNGTLVVQSLHGVFKVKDTTTLQQHLVDGRDMIIIRMPKDFPPFPQKLKFREPQREERICLVTTNFQTKSMSSMVSDTSCTFPSGDGIFWKHWIQTKDGQCGSPLVSTRDGFIVGIHSASNFTNTNNYFTSVPKNFMELLTNQEAQQWVSGWRLNADSVLWGGHKVFMVKPEEPFQPVKEATQL [S4I] | 0.0839 | – | 0.0501 | 0.0747 | 0.056 | – | 0.0752 | 0.14 | – | 0.0724 | 0.0592 | 0.0645 | 0.103 | – | 0.0219 | 0.0958 | – | 0.155 | 0.0976
8 | MGESLFKGPRDYNPISSSICHLTNESDGHTTSLYGIGFGPFIITNKHLFRRNNGTLVVQSLHGVFKVKDTTTLQQHLVDGRDMIIIRMPKDFPPFPQKLKFREPQREERICLVTTNFQTKSMSSMVSDTSCTFPSGDGIFWKHWIQTKDGNCGSPLVSTRDGFIVGIHSASNFTNTNNYFTSVPKNFMELLTNQEAQQWVSGWRLNADSVLWGGHKVFMVKPEEPFQPVKEATQL [Q151N] | 0.0712 | – | 0.0602 | 0.0551 | 0.0617 | 0.0895 | 0.062 | 0.0588 | 0.0558 | 0.0562 | 0.0596 | – | – | 0.0573 | 0.0661 | – | 0.0653 | 0.0703 | 0.0695
9 | MGESLFKGPRDYNPISSSWCHLTNESDGHTTSLYGIGFGPFIITNKHLFRRNNGTLVVQSLHGVFKVKDTTTLQQHLVDGRDMIIIRMPKDFPPFPQKLKFREPQREERICLVTTNFQTKSMSSMVSDTSCTFPSGDGIFWKHWIQTKDGQCGSPLVSTRDGFIVGIHSASNFTNTNNYFTSVPKNFMELLTNQEAQQWVSGWRLNADSVLWGGHKVFMVKPEEPFQPVKEATQL [I19W] | 0.0508 | 0.0545 | – | 0.0518 | 0.0488 | – | 0.0445 | 0.0488 | 0.0529 | 0.0495 | 0.0461 | 0.0473 | 0.0456 | 0.0496 | – | 0.0561 | 0.0591 | – | 0.0539
